Reference: patent USRE48267E1, “Variants of C-type natriuretic peptide” (priority 2009, dated 2020)
Part of at least one peptide drawing is inferred or uncertain, most often the ends. Marks after values point to notes of the source that are not given here.

Columns and labels:
[1] = test system: FGFR3^ach mouse femurs and tibias; test: mouse organ culture model of endochondral bone growth, FGFR3^ach bones
Method: To determine the efficacy of CNP variants in stimulating longitudinal bone growth, CNP variants were tested in a mouse organ culture model of endochondral bone growth in wild-type mice and transgenic mice having a G380R mutation in the human FGFR-3 gene (FGFR3^wt/Ach heterozygote) which represent a mouse model of mild achondroplasia. In brief, the pharmacological activity of wild-type CNP22 and CNP variants was compared in an organ culture model of embryonic or neonatal mouse tibiae, isolated from wild-type and FGFR3^wt/Ach littermates. Overall bone growth and histological changes within the growth plate were assessed. Conditioned culture medium is also assessed for biomarkers of intracellular signaling (cGMP), cartilage metabolism (type II collagen, other collagens, aggrecan chondroitin sulfate), bone metabolism (bone alkaline phosphatase, osteocalcin, type I collagen [C-telopeptide, N-telopeptide]), and inflammation (interleukin-1, interleukin 6, interleukin-11).
The efficacy of wtCNP22, CNP37 and PEO24-[…]22(K4R) (SEQ ID NO: 36) in stimulating longitudinal femoral growth was evaluated in the mouse organ culture model. For these experiments femora were isolated from 2-3 day old wild-type mice and cultured in alphaMEM supplemented with 0.2% BSA, 0.5 mM L-glutamine, 40 units penicillin/mL and 40 ug streptomycin/mL, for 8 days in the presence of vehicle, CNP22 or CNP variants. The treatment commenced at day 0 and was repeated every two days thereafter, as the medium was changed. Bones were measured prior to treatment and every two days thereafter, using a dissection microscope fitted with a 1 cm eye-piece reticule. Conditioned medium was used for biomarker analysis. At day 8 bones were fixed in 4% paraformaldehyde for 24 hr, decalcified in 5% formic acid for 24 hrs, dehydrated and embedded in paraffin. Bones were sectioned at 5 um (microns), which were then deparaffinized, rehydrated, and stained with Alcian Blue for 30 min (pH 2.5; MasterTech). Alcian Blue stains cartilage blue. Stained sections were visualized and photographed by brightfield microscopy. The thickness of the hypertrophic region of the growth plate cartilage was determined by image analysis.
Furthermore, ex vivo distribution of CNP37 in the growth plate of FGFR3^ach mouse tibia was evaluated. Bone samples were prepared as described above. Paraffin sections were cut and heat fixed for 1 hour at 60° C. Antigen retrieval with 1% hyaluronidase at 37° C. (30 minutes) was followed by a 1 hour serum block (10% Normal Goat Serum). CNP22 antibody (1:500 dilution; Peninsula Laboratories Inc., San Carlos, Calif.) was applied overnight at 4° C. For immunodetection, Vectastain ELITE ABC kit (Vector, Burlingame, Calif.) was used according to the manufacturer's recommendations. Specific bound peroxidase was visualized by incubation with DAB substrate kit (Vector) and the reaction was developed for 3 minutes. Slides were then dehydrated and mounted and photographed using a brightfield microscope.
In addition to the distribution of CNP variants in the bone growth plate, the ex vivo effects of CNP37, CNP22 and vehicle on cells in the FGFR3^ach and wild-type growth plate, e.g., hypertrophic cell size and cellularity of proliferating zone, were also evaluated. Bone samples were prepared, including Alcian Blue staining, as described above. Images of the entire proximal growth plate were taken at 4× magnitude. The growth plate is divided into three zones, starting from the epiphyseal side of cartilage: the resting zone (individual small chondrocytes), proliferating zone (columns of stacked chondrocytes parallel to the long axis of the bone), and hypertrophic zone (large chondrocytes and thin septa between the chondrocytes). In these regions, measurements were made by ImageJ software, including the number of proliferating chondrocytes per column and the density of hypertrophic chondrocytes. […]

FGFR3^ach mice = test: efficacy in mouse model of mild achondroplasia; type: in vivo
From the text: To assess the biodistribution of CNP37 in the bone growth plate in vivo and the in vivo effects of CNP37 on the growth plate (including total growth plate thickness, hypertrophic zone thickness, and cellularity of proliferating zone), bone samples were obtained from FGFR3^ach mice treated with vehicle or CNP37 as described above. For biodistribution and in vivo effects studies, tibias were fixed and stored in 70% ethanol. For immunohistochemistry, the samples were decalcified in 5% formic acid for 2 days, dehydrated and embedded in paraffin. Bones were sectioned at 5 um (microns), which were then deparaffinized, rehydrated, and used for CNP immunohistochemistry as described above. For cellular image analysis, bones were sectioned at 5 (microns), and then deparaffinized, rehydrated, and stained with Alcian Blue for 30 minutes (pH 2.5; MasterTech) and Hematoxylin &
Eosin for 30 seconds. Stained sections were visualized and photographed by brightfield microscopy. Thicknesses of the growth plate and the proliferating and hypertrophic zones were measured using ImageJ software.
The efficacy of CNP variants in enhancing growth and correcting achondroplasia was tested in a mouse model of mild achondroplasia, using a strain of transgenic mice expressing a human FGFR-3 gene having a G380R mutation (FGFR3^ach) (Wang et al., Proc. Natl. Acad. Sci. USA, 96(8): 4455-4460 (1999); Naski et al., Development USA, 125: 4977-4988 (1998); U.S. Pat. Nos. 6,265,632 and 6,136,040).
At 3 weeks of age, FGFR3^ach mice and their wild-type littermates were anesthetized to have lateral whole-body X-ray images taken by Faxitron, and randomized by body weight into the following treatment groups (n=8/group): (1) wild-type/vehicle, (2) FGFR3^ach/vehicle, (3) FGFR3^ach/CNP37, and (4) FGFR3^ach/PEO24-GANRR-CNP22(K4R) (SEQ ID NO: 36). The mice received once daily subcutaneous (s.c.) administration of designated test article (vehicle or 200 nmol/kg CNP variant) for 5 weeks. Satellite groups (n=3) were used to confirm exposure of each test article following a single subcutaneous administration on Day 1. Wild-type male FVB mice that received daily s.c. injection of vehicle for 5 weeks were used as a control for normal growth.
X-ray measurements at baseline and at the end of the study were performed to determine change in the head length, area of the skull, and the external auditory meatus (EAM, the ear canal running from the outer ear to the middle ear). Body weight and tail length were measured at least once weekly, using a digital caliper to measure tail length, and body (nasoanal) length was measured after 5 weeks of treatment. Bone (tibia, femur, ulna and humerus) lengths were measured using a digital caliper at necropsy.
On Day 37, all mice were sacrificed by terminal anesthesia and whole-animal photographs and X-ray images by Faxitron were taken. Left and right tibia, femur, humerus, and ulna were collected and measured using a digital caliper. The left portions of each bone were processed for histology, and the right portions were snap-frozen for archival. Samples obtained from the bones were used to evaluate the effects of NP variants on endochondral bone growth.

[2] = FGFR3^ach growth plate, ex vivo
[3] = 200 nmol/kg s.c. once daily for 5 weeks

## CC[C@H](C)[C@@H]1NC(=O)[C@H](CCCNC(=N)N)NC(=O)[C@H](CC(=O)O)NC(=O)[C@H](CC(C)C)NC(=O)[C@H](CCCCN)NC(=O)[C@H](CC(C)C)NC(=O)CNC(=O)[C@H](Cc2ccccc2)NC(=O)[C@@H](NC(=O)CNC(=O)[C@H](CCCCN)NC(=O)[C@H](CO)NC(=O)[C@H](CC(C)C)NC(=O)CNC(=O)[C@H](CCCCN)NC(=O)[C@H](CCCCN)NC(=O)[C@H](CC(N)=O)NC(=O)[C@H](C)NC(=O)CNC(=O)[C@H](CCCCN)NC(=O)[C@H](Cc2ccc(O)cc2)NC(=O)[C@H](CCCCN)NC(=O)[C@H](CCCNC(=N)N)NC(=O)[C@H](C)NC(=O)[C@H](CC(N)=O)NC(=O)[C@@H]2CCCN2C(=O)[C@H](Cc2c[nH]cn2)NC(=O)[C@H](CCC(=O)O)NC(=O)[C@@H](N)CCC(N)=O)CSSC[C@@H](C(=O)O)NC(=O)CNC(=O)[C@H](CC(C)C)NC(=O)CNC(=O)[C@H](CO)NC(=O)[C@H](CCSC)NC(=O)[C@H](CO)NC(=O)CNC1=O [Analog BL]
[1]; [2]
  cellularity of proliferating columns: increased
  chondrocyte hypertrophy: increased
[1]; FGFR3^ach mouse femurs
  levels of cleaved collagen type II in conditioned media: significantly increased (p<0.05)
[1]; ex-planted FGFR3^ach mouse femurs and tibias, day 8
  cGMP levels in conditioned media: large increase (p<0.01)
[1]; treated every two days
  longitudinal growth of FGFR3^ach mouse femur ex vivo: increased the longitudinal growth of FGFR3^ach mouse femur compared to vehicle
  longitudinal growth of FGFR3^ach mouse tibia ex vivo: increased the longitudinal growth of the tibia compared to vehicle or CNP22
FGFR3^ach mice
  hypertrophic zone thickness of tibia in vivo: significantly increased
  proliferating zone thickness of tibia in vivo: significantly increased
  total growth plate thickness of tibia in vivo: significantly increased
FGFR3^ach mice; [3]
  Femur length, relative to vehicle-treated FGFR3^ach mice = 100%: 112%**
  Humerus length, relative to vehicle-treated FGFR3^ach mice = 100%: 105%*
  Naso-Anal length, relative to vehicle-treated FGFR3^ach mice = 100%: 109%**
  Tail length, relative to vehicle-treated FGFR3^ach mice = 100%: 115%**
  Tibia length, relative to vehicle-treated FGFR3^ach mice = 100%: 107%**
  Ulna length, relative to vehicle-treated FGFR3^ach mice = 100%: 106%**
  area of the external auditory meatus: increased
  head length: increased
  rhizomelia, as assessed by the femur:tibia ratio: corrected rhizomelia
  spine length: increased
